From patent publication US20190194347A1, “ANTIBODIES FOR EPIDERMAL GROWTH FACTOR RECEPTOR 3 (HER3)” (NOVARTIS AG, priority 2010, published 2019)

Test system: Akt (S473) phosphorylation
Assay: Phospho-Akt (S473) in vitro cell assay, MCF7
Format: cell-based, human
Conditions: extent of inhibition, MCF7 cells
Protocol: Sub-confluent SK-Br-3 and BT-474 cells grown in complete media were harvested with accutase (PAA Laboratories) and resuspended in the appropriate growth media at a final concentration of 5×10^5 cells/mL. 100 μL of cell suspension was then added to each well of a 96-well flat bottomed plate (Nunc) to yield a final density of 5×10^4 cells/well. All plates were then incubated overnight at 37° C. prior to treatment with the appropriate concentration of HER3 antibodies (diluted in the appropriate media) for 80 minutes at 37° C. All media was gently aspirated and the cells washed with ice-cold PBS containing 1 mM CaCl2 and 0.5 mM MgCl2 (Gibco). The cells were lysed by adding 50 μL ice-cold lysis buffer (20 mM Tris (pH8.0)/137 mM NaCl/10% Glycerol/2 mM EDTA/1% NP-40/1 mM sodium orthovanadate/Aprotinin (10 μg/mL)/Leupeptin (10 μg/mL)) and incubated on ice with shaking for 30 minutes. Lysates were then collected and spun at 1800 g for 15 minutes at 4° C. to remove cell debris. […] Phosphorylated Akt was detected using 20 μL of SULFO-TAG anti-phospho-Akt (S473) antibody (Mesoscale Discovery) diluted 50-fold in 1% BSA/1× Tris/0.1% Tween-20 by incubating with shaking at room temperature for 2 hours. The wells were washed four times with 1× Tris/0.1% Tween-20 before adding 20 μL of Read buffer T with surfactant (Mesoscale Discovery) and the signal quantified using a Mesoscale Sector Imager. […]

Row | Molecule | MCF7 pAkt % inhibition
1 | 09825 (antibody) heavy: QVQLVESGGGLVQPGGSLRLSCAASGFTFSSYAMSWVRQAPGKGLEWVSAINSQGKSTYYADSVKGRFTISRDNSKNTLYLQMNSLRAEDTAVYYCARWGDEGFDIWGQGTLVTVSSASTKGPSVFPLAPSSKSTSGGTAALGCLVKDYFPEPVTVSWNSGALTSGVHTFPAVLQSSGLYSLSSVVTVPSSSLGTQTYICNVNHKPSNTKVDKRV[human IgG1 Fc not given here] light: DIQMTQSPSSLSASVGDRVTITCRASQGISNWLAWYQQKPGKAPKLLIYGASSLQSGVPSRFSGSGSGTDFTLTISSLQPEDFAVYYCQQYSSFPTTFGQGTKVEIKRTVAAPSVFIFPPSDEQLKSGTASVVCLLNNFYPREAKVQWKVDNALQSGNSQESVTEQDSKDSTYSLSSTLTLSKADYEKHKVYACEVTHQGLSSPVTKSFNRGEC | 79%
2 | 10703 (antibody) heavy: EVQLLESGGGLVQPGGSLRLSCAASGFTFSSYAMSWVRQAPGKGLEWVSAINSQGKSTYYADSVKGRFTISRDNSKNTLYLQMNSLRAEDTAVYYCARWGDEGFDIWGQGTLVTVSSASTKGPSVFPLAPSSKSTSGGTAALGCLVKDYFPEPVTVSWNSGALTSGVHTFPAVLQSSGLYSLSSVVTVPSSSLGTQTYICNVNHKPSNTKVDKRV[human IgG1 Fc not given here] light: DIQMTQSPSSLSASVGDRVTITCRASQGISNWLAWYQQKPGKAPKLLIYGASSLQSGVPSRFSGSGSGTDFTLTISSLQPEDFATYYCQQYSSFPTTFGQGTKVEIKRTVAAPSVFIFPPSDEQLKSGTASVVCLLNNFYPREAKVQWKVDNALQSGNSQESVTEQDSKDSTYSLSSTLTLSKADYEKHKVYACEVTHQGLSSPVTKSFNRGEC | 79%
